Marks after values point to notes of the source that are not given here.
System: Root knot nematode disease
Conditions: in vivo

abamectin [Control 4, reference compound]
Biocontrol efficacy, Root knot nematode disease: 47.36 ± 3.3^d % | Disease severity, Root knot nematode disease: 30.58 ± 2.7^b %

— patent US20110182860A1 (priority 2009, published 2011)
